Experimental data as given in the supplement of paper PMC10126150.
Sequences with one replicate were seen in a single cluster, so their values are uncertain.

Tested on: ATP
Test: switch fluorescence ratio, 500 uM ATP over buffer (Cy3 cluster intensity, sum of 5 cycles each) (fold (ratio)); higher = stronger signal-on switching upon ATP binding; sequences stand for … in TCGTCGGCAGCGTCAGATGTGTATAAGAGACAGTTTTTTTTTTTTTTTTTTTTTTTTT…TC
Conditions: aptamer strand: ATP DNA aptamer (quencher-CACCTGGGGGAGTATTGCGGAGGAAGG + anchor), 100 nM annealed; ATP concentration: 500 uM; one replicate
Outline: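 Values give the fluorescence ratio for each switch-domain sequence, averaged from per-cluster ratios of summed target-cycle to summed buffer-cycle Cy3 intensity. The Cy3-labelled switching-strand clusters sat on a modified Illumina MiSeq flow-cell, were annealed to 100 nM quencher-labelled ATP aptamer, and were imaged in selection buffer, then after 15 min with 500 uM ATP at 22 °C. Five cycles ran with NaOH stripping and re-annealing between them, and clusters outside 100-1000 RFU were excluded.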
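Further: ATP exposure 15 min at 22 °C before imaging.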

TATCTAGTTT
switch fluorescence ratio: 1

AGGTGTTACG
switch fluorescence ratio: 0.964

CATGGCGCTT
switch fluorescence ratio: 1.02

ATATCCAGGT
switch fluorescence ratio: 1.24

AGTTTGCAGG
switch fluorescence ratio: 0.981

CCATGAAAGT
switch fluorescence ratio: 1.03

CGGTGGATAG
switch fluorescence ratio: 1.02

TTTGTACATG
switch fluorescence ratio: 1.03

ATAGACATCT
switch fluorescence ratio: 0.986

AAAACTTTCG
switch fluorescence ratio: 1.09

TGATTACTGC
switch fluorescence ratio: 0.939

TCGTCCTGTG
switch fluorescence ratio: 1.01

GAATCACGGC
switch fluorescence ratio: 1.08

CAAGGATTG
switch fluorescence ratio: 0.981

AATTGTCTGG
switch fluorescence ratio: 1.01

ATTGGAGATG
switch fluorescence ratio: 0.947

CACGCTCCGT
switch fluorescence ratio: 1.07

TGTCACAGGA
switch fluorescence ratio: 1.06

CTAGTGTGTT
switch fluorescence ratio: 1.02

AAAGAAATAC
switch fluorescence ratio: 1.42

CGTAAGGCCT
switch fluorescence ratio: 0.996

TAAGTTAAT
switch fluorescence ratio: 0.999

GTGACCGCGA
switch fluorescence ratio: 1.78

AGGTGCATCA
switch fluorescence ratio: 0.937

CAGTGAGGAA
switch fluorescence ratio: 1.02

AGCTGACTTG
switch fluorescence ratio: 1.02

GTATGACGAT
switch fluorescence ratio: 1.02

GGAATAGTTA
switch fluorescence ratio: 1.02

CCCTTAGGGG
switch fluorescence ratio: 1.06

TGAGCCGCAT
switch fluorescence ratio: 1.21

GTGTCCGAGA
switch fluorescence ratio: 1

AGATTTCCCG
switch fluorescence ratio: 1.04

GATGTAATGG
switch fluorescence ratio: 1.08

AACAGAGCCA
switch fluorescence ratio: 0.957

ATGCTGCCAC
switch fluorescence ratio: 1.02

GTTCAGCGGT
switch fluorescence ratio: 1.03

CTTATTGTCT
switch fluorescence ratio: 1.02

TTGAACTTCA
switch fluorescence ratio: 1.06

GCGTGTCGCT
switch fluorescence ratio: 1.01

CTAACGCGGA
switch fluorescence ratio: 1.05

GGTGCGGGTC
switch fluorescence ratio: 1.02

GGCCTTAGCT
switch fluorescence ratio: 1.02

TATAATATGG
switch fluorescence ratio: 1

CGATATAGTA
switch fluorescence ratio: 1.01

GTGTTGGGG
switch fluorescence ratio: 1.01

CATGCGAGGT
switch fluorescence ratio: 1.04

AACATCAGCC
switch fluorescence ratio: 1.09

CGGGCTCACG
switch fluorescence ratio: 0.987

TGAGCGAACA
switch fluorescence ratio: 0.988

CCATCCCTAC
switch fluorescence ratio: 4.53

GGAGGCAGTG
switch fluorescence ratio: 0.971

TCCTGGTGAC
switch fluorescence ratio: 1.31

CAGTAGGAAG
switch fluorescence ratio: 0.98

ATTAACAGAA
switch fluorescence ratio: 1.03

TGAAGGGCTG
switch fluorescence ratio: 1

GTCAGGTTTT
switch fluorescence ratio: 0.976

GGAACCTATG
switch fluorescence ratio: 1.02

GTTTCTAAAC
switch fluorescence ratio: 1

TACGTATCCA
switch fluorescence ratio: 1.13

GGCGGCGCCT
switch fluorescence ratio: 0.975

TGAAAGTTGC
switch fluorescence ratio: 1.01

CATGAGTGTA
switch fluorescence ratio: 1.02

AGGATCTGCG
switch fluorescence ratio: 0.948

TTTGACTCGC
switch fluorescence ratio: 1.52

TACTCCAAG
switch fluorescence ratio: 1.13

ACTTTGGATG
switch fluorescence ratio: 0.96

CGCGCGTTAT
switch fluorescence ratio: 1.05

TTCTTGTAAA
switch fluorescence ratio: 0.956

AGCGGGAATT
switch fluorescence ratio: 0.909

GGGTTAAAT
switch fluorescence ratio: 1.01

CAACACGCCT
switch fluorescence ratio: 0.999

CGCGTCAGGA
switch fluorescence ratio: 1

CTATTTCCTG
switch fluorescence ratio: 1

ATAGCTGGAC
switch fluorescence ratio: 1.09

CAGTTTTGCA
switch fluorescence ratio: 1.02

TACTTCCCGA
switch fluorescence ratio: 1.05

ATAAAAAACG
switch fluorescence ratio: 1.05

CGATGTGAG
switch fluorescence ratio: 0.984

AAGCGTTCCG
switch fluorescence ratio: 1.03

AACCGCTTTC
switch fluorescence ratio: 3.51

TTACATTACG
switch fluorescence ratio: 0.984

CGAGGACACT
switch fluorescence ratio: 0.979

CTTCTCGAGC
switch fluorescence ratio: 1.08

GTTTACCGAT
switch fluorescence ratio: 0.989

TATTCGTGAA
switch fluorescence ratio: 1.03

CATCCCCCAG
switch fluorescence ratio: 6.21

GTGTCCCCTA
switch fluorescence ratio: 0.977

ATATGGCAAA
switch fluorescence ratio: 1.04

CACTCCGTGG
switch fluorescence ratio: 1.12

CCTGGGAGGT
switch fluorescence ratio: 0.996

CACGTGATAT
switch fluorescence ratio: 1.01

CCAAACTTAT
switch fluorescence ratio: 0.939

ATTCAATATG
switch fluorescence ratio: 1.01

AATAAGATGG
switch fluorescence ratio: 1.01

GATAGTGCGC
switch fluorescence ratio: 0.974

GTGCGGTGGA
switch fluorescence ratio: 1.01

GATTCTGGTC
switch fluorescence ratio: 1.04

TCGTACCCTG
switch fluorescence ratio: 0.982

AATAGAGTGT
switch fluorescence ratio: 0.972

CGAGAGTTCA
switch fluorescence ratio: 0.959

TTCCTTTGAT
switch fluorescence ratio: 0.989

TAGCATGGGT
switch fluorescence ratio: 1.04

ATGTGAATTC
switch fluorescence ratio: 0.992

GCTTTATCGT
switch fluorescence ratio: 0.95

AAGCTGTTGA
switch fluorescence ratio: 1.01

CCATCCATGT
switch fluorescence ratio: 1.05

GCTGTAGATG
switch fluorescence ratio: 0.993

TAATGGCAGT
switch fluorescence ratio: 0.983

GGGCTACGGT
switch fluorescence ratio: 0.979

AGTGTGAGGG
switch fluorescence ratio: 0.973

CTACGAAATA
switch fluorescence ratio: 2.83

TAAGGGCTTT
switch fluorescence ratio: 0.998

TCGTGTCCC
switch fluorescence ratio: 0.963

AGCACTAGC
switch fluorescence ratio: 1.01

ATTTGCAGTC
switch fluorescence ratio: 1

ACGTTGACTG
switch fluorescence ratio: 1

GTGCATCTGT
switch fluorescence ratio: 1.01

ATATTTGCG
switch fluorescence ratio: 0.933

GAGATATGGG
switch fluorescence ratio: 1.02

TAGGTAGCGT
switch fluorescence ratio: 0.947

GAAACATATA
switch fluorescence ratio: 0.999

CACTTCCATG
switch fluorescence ratio: 1.04

GCAGTGCATG
switch fluorescence ratio: 0.967

CATGCCGCGT
switch fluorescence ratio: 1.03

CACGTGATAC
switch fluorescence ratio: 3.75

GCGCATCATC
switch fluorescence ratio: 1.34

ATTGCAAGGA
switch fluorescence ratio: 1.04

CTGAGGATTG
switch fluorescence ratio: 0.991

TGTAAGATAA
switch fluorescence ratio: 1.01

TCCAGCGGG
switch fluorescence ratio: 1.02

CGGAGCCTGG
switch fluorescence ratio: 1.05

ACGTGGAGAG
switch fluorescence ratio: 1.02

AAGTAACGGG
switch fluorescence ratio: 1.03

ACCCGTGGGT
switch fluorescence ratio: 1.02

GCTGAATACG
switch fluorescence ratio: 1.04

CCTTCGTATG
switch fluorescence ratio: 1.21

AGTCAATTTT
switch fluorescence ratio: 0.986

GCCGAGCCCT
switch fluorescence ratio: 0.993

GGTGTGGCTG
switch fluorescence ratio: 1.07

AGTCAGCGTT
switch fluorescence ratio: 1.01

GTTGGCTGAG
switch fluorescence ratio: 1.05

TTAACAGCCA
switch fluorescence ratio: 1.07

TTGATTGCGC
switch fluorescence ratio: 0.992

TACAGCTTAT
switch fluorescence ratio: 1.05

TCGTCTCTAA
switch fluorescence ratio: 0.967

TGATCATGTG
switch fluorescence ratio: 1.01

CAGGTGGTCT
switch fluorescence ratio: 1.03

AATCGCGGTT
switch fluorescence ratio: 1.02

GCTGAAGGGG
switch fluorescence ratio: 1.01

AGTCGAACAC
switch fluorescence ratio: 0.989

TGCAAGTATG
switch fluorescence ratio: 1.1

GATGTTGAGG
switch fluorescence ratio: 0.933

TGTACGGACT
switch fluorescence ratio: 1.29

TATCTATTT
switch fluorescence ratio: 0.968

GGTGTCTAGC
switch fluorescence ratio: 1.02

GCGCGTTTCG
switch fluorescence ratio: 0.942

CTGTGAGTCG
switch fluorescence ratio: 0.989
